According to PubChem BioAssay AID504332 (National Center for Advancing Translational Sciences (NCATS), 2011):
About 31,000 (8.9%) of roughly 350,000 compounds were called active. Inconclusive results, whose numbers are uncertain, are shown with a selection of clear calls. Calls follow the shape of the dose curve; as a rule, active = well fitted inhibition curve with a large enough effect; inconclusive = small, poorly fitted or top-dose-only effect; inactive = no such curve, though single readings can be large or run the other way. A potency beside an inconclusive call is a rough fit, not a confirmed value.

Molecular target: Histone-lysine N-methyltransferase EHMT2 (Homo sapiens) (UniProt Q96KQ7)
Experiment: qHTS Assay for Inhibitors of Histone Lysine Methyltransferase G9a; also: nearly all actives have a fitted effect of over 75% in size
Settings: G9a H3K9 monomethylation, AlphaScreen, 2 h; activity, negative = inhibition: at 59 µM (top of the series) unless noted
Method in brief: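 Compounds were preincubated with 20 nM G9a for 15 min, after which biotinylated H3K9 peptide (500 nM) and SAM (20 uM) started a 2 h room-temperature reaction. Monomethylated product was quantified by antibody-based AlphaScreen chemiluminescence.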
% is scaled to controls: 0 for no effect and ±100 for the full control effect; potency is read from the fitted curve at half-maximal effect; tags tell the direction and shape of the fitted curve.

Sequence of UniProt Q96KQ7 (Q96KQ7 whole entry, looked up): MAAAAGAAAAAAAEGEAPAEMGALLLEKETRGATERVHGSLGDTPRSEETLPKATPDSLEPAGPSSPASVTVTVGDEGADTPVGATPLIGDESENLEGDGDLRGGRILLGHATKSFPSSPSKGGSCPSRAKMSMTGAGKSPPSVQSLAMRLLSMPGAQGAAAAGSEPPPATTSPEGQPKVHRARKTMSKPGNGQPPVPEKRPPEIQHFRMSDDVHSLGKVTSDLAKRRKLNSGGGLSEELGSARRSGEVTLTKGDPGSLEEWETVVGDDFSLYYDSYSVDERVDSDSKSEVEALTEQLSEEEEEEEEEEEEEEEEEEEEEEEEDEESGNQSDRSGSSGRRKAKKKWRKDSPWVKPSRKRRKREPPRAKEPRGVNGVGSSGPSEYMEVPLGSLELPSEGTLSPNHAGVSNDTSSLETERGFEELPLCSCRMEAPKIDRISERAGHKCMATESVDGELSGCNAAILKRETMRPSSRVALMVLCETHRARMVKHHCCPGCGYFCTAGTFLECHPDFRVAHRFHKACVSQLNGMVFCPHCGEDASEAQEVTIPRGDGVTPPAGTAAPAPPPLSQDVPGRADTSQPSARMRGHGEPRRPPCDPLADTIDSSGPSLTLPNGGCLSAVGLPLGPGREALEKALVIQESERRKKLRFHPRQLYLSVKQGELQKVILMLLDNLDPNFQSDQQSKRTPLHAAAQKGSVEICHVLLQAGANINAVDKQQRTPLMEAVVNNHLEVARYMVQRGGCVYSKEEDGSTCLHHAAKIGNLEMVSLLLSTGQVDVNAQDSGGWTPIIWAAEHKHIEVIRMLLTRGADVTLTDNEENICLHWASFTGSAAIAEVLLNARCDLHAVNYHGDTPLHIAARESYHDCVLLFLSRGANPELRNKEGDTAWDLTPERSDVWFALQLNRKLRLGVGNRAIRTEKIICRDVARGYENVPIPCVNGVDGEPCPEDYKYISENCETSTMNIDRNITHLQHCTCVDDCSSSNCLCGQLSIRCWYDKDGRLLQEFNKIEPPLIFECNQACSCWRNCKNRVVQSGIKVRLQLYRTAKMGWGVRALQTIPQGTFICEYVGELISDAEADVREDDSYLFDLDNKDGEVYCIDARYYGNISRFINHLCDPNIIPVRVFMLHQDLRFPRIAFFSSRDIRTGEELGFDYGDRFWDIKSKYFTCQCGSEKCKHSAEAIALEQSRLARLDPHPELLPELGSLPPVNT

Row | SMILES | activity, negative = inhibition | Potency
1 | Cc1cc(C(=O)CSc2nc3ccccc3c(=O)[nH]2)c(C)n1C | inconclusive: -91% [inhibitor] | –
2 | COc1ccc(Cl)cc1NC(=O)CN(C)C(=O)Cc1ccc(-c2ccccc2)cc1 | – | inconclusive: 28.2 µM [inhibitor, single point]
3 | O=S(=O)(c1cccs1)N1CCCc2cccc(O)c21 | – | inconclusive: 12.6 µM [inhibitor, partial curve, poor fit]
4 | CCN(CC)c1ccc(/C=N\NC(=O)c2cccc3cc[nH]c23)cc1 | inactive: 17.6% [at 12.7 µM] | –
5 | Cc1ccc(/C=N/n2c(C3CCCCC3)n[nH]c2=S)s1 | – | active: 8.91 µM
6 | CC(Sc1ncnc2c1cnn2-c1ccccc1)C(=O)Nc1ccc(N2CCOCC2)cc1 (centres undefined) | inactive: 9% [at 0.501 µM] | –
7 | COc1ccccc1C(OC(=O)c1cccs1)C(=O)NCC1CCCO1 (centres undefined) | – | inactive
8 | Cc1ccccc1-c1nc(CS(=O)CC(=O)NCCN2CCOCC2)c(C)o1 (centres undefined) | – | inconclusive: 79.4 µM [inhibitor, single point]
9 | COc1cc(C(CC(=O)NCc2ccccc2)N2Cc3ccccc3C2=O)cc(OC)c1OC (centres undefined) | – | inconclusive: 5.01 µM [inhibitor, partial curve, poor fit]
10 | Cc1ccc(Cc2ccc(C(=O)NNC(N)=S)o2)cc1 | – | active: 56.2 µM
11 | CC1CCCC(C)N1S(=O)(=O)c1ccc(S(=O)(=O)NCCc2ccncc2)cc1 (centres undefined) | – | inconclusive: 39.8 µM [inhibitor, single point]
12 | COc1ccc(C2CC(=O)N3CN(c4ccc(C)c(Cl)c4)CSC3=C2C#N)cc1 (centres undefined) | – | active: 2.24 µM
13 | Cc1sc2nc(CSc3ccc([N+](=O)[O-])c(C(F)(F)F)c3)[nH]c(=O)c2c1C | – | inconclusive: 10 µM [inhibitor, partial curve, poor fit]
14 | CN(C)c1ccc(C2C3=C(CCCC3=O)OC3=C2C(=O)CCC3)cc1 | inconclusive: -72.6% [inhibitor] | –
15 | CC(=O)NCCC(=O)Nc1nc(-c2ccc3ccccc3c2)cs1 | – | inconclusive: 89.1 µM [inhibitor, single point]
16 | Fc1ccc(N/N=C/c2ccc(N3CCOCC3)cc2)c(F)c1 | – | active: 10 µM
17 | O=C(/C=C/c1cn(CC(O)CN2CCCCC2)c2ccccc12)c1ccccc1 (centres undefined) | – | inconclusive: 44.7 µM [inhibitor, partial curve]
18 | CCC(C(=O)Nc1ccc(C(C)=O)cc1)n1cnc2nc3c(cc2c1=O)CCCC3 (centres undefined) | – | inactive
19 | O=C(N/N=C/C=C/c1ccco1)c1cccnc1 | – | active: 8.91 µM
20 | CC(=O)Nc1ccc(SCc2ncc(-c3ccccc3)o2)cc1 | – | active: 50.1 µM
21 | CCCCN(C(=O)c1ccc([N+](=O)[O-])o1)c1c(N)n(CCCC)c(=O)[nH]c1=O | – | inconclusive: 50.1 µM [inhibitor, partial curve]
22 | OC(CSc1ccc(F)cc1)CN1CCN(c2ccccc2)CC1 (centres undefined) | – | inconclusive: 39.8 µM [inhibitor, partial curve, poor fit]
23 | C=CCn1c(CNC(=O)c2ccco2)nnc1SCC(=O)c1ccc(F)cc1 | – | inconclusive: 7.94 µM [inhibitor, partial curve, poor fit]
24 | Cc1cc(C)cc(NC(=O)CCc2nnc3n(C)c(=O)c4sccc4n23)c1 | – | inactive
25 | O=C(CCCSc1nc2ccccc2[nH]1)N1CCN(c2ccccc2)CC1 | – | active: 44.7 µM

Row | SMILES | activity, negative = inhibition | Potency
26 | CC1=C(C(=O)Nc2cc(Cl)ccc2C)C2(CCCCC2)OC1=O | – | inactive
27 | COCCN1Cc2cccc(C(=O)Nc3ccc(C)cc3)c2C1=O | – | inconclusive: 50.1 µM [inhibitor, partial curve, poor fit]
28 | CCN1CCc2nc3ccccc3c(C(=O)Nc3ccc(C#N)cc3)c2C1 | – | inconclusive: 70.8 µM [inhibitor, single point]
29 | CCn1c(CSc2nc3ccccc3s2)nnc1SCC(=O)NCC(=O)OC | – | inconclusive: 35.5 µM [inhibitor, single point]
30 | COc1ccc(CNCc2ccccc2C(F)(F)F)cc1 | – | active: 8.91 µM
31 | Cc1ccc(-c2c(C(=O)N3CCN(c4cccc(C)c4)C(C)C3)oc(=O)c3ccccc23)cc1 (centres undefined) | – | inactive
32 | Cn1c(=O)c2c(nc(CN3CCN(c4ccccc4F)CC3)n2CCN2CCOCC2)n(C)c1=O | – | inconclusive: 39.8 µM [inhibitor, single point]
33 | Cc1sc(NC(=O)c2oc3ccccc3c2C)c(C#N)c1C | inconclusive: -58.9% [inhibitor] | –
34 | COC(=O)c1ccc(CNC(=O)COc2ccccc2Br)o1 | – | inconclusive: 56.2 µM [inhibitor, single point]
35 | COC(=O)c1c(SC)nc2ccccc2c1OCc1ccccc1Cl | – | inactive
36 | COC(=O)c1c(-c2ccco2)csc1NC(=O)C1CC=CCC1C(=O)O (centres undefined) | – | inconclusive: 35.5 µM [inhibitor, partial curve, poor fit]
37 | Cn1c(CC(=O)Nc2ccccc2)nnc1SCC(=O)c1ccccc1 | – | inconclusive: 2.24 µM [inhibitor, partial curve, poor fit]
38 | Cc1ccccc1-n1c(-c2csc(C)c2C)n[nH]c1=S | – | active: 1 µM
39 | CCN1CCN(C(=O)c2cc3cc(Cl)ccc3[nH]2)CC1 | – | inconclusive: 89.1 µM [inhibitor, single point]
40 | CC1N=C2c3ccccc3N=C(SCc3cc(=O)n4cc(Cl)ccc4n3)N2C1=O (centres undefined) | – | inconclusive: 31.6 µM [inhibitor, single point]
41 | Cc1ccc(-c2nn(C)c(=O)c3ccccc23)cc1S(=O)(=O)NCCN1CCOCC1 | inactive: 11.3% [at 12.7 µM] | –
42 | O=C(CCCSc1ccccc1)Nc1ccc(Cl)c(S(=O)(=O)N2CCOCC2)c1 | inactive: -41.7% [at 12.7 µM] | –
43 | O=C(Nc1ccc(Cl)cc1)OCCN1CCN(Cc2ccccc2)CCC1=O | – | inactive
44 | COc1ccccc1CCC(=O)Nc1ccc(S(=O)(=O)Nc2nccs2)cc1 | inactive: 22.6% [at 2.33 µM] | –
45 | CNC(=O)CSCc1cnn(-c2ccccc2)c1-n1cccc1 | – | inconclusive: 50.1 µM [inhibitor, partial curve, poor fit]
46 | O=C(O)CC/C(=C\c1ccccc1[N+](=O)[O-])c1nc2ccccc2s1 | – | inactive
47 | CCOC(=O)C(=O)NCC(c1cccnc1)N1CCN(c2ccccc2)CC1 (centres undefined) | – | inactive
48 | CCOC(=O)CC(NC(=O)c1cc2cc(Br)cc(OC)c2oc1=O)c1ccc(OC)cc1 (centres undefined) | – | inactive
49 | Cc1nnc(C)n1/N=C/c1ccc(-c2ccccc2Cl)o1 | – | active: 50.1 µM
50 | CN(C)Cc1nnnn1-c1ccccc1 | – | inactive

Row | SMILES | activity, negative = inhibition | Potency
51 | CCOn1c(=O)c(-c2ccccc2)[n+]([O-])c2ccccc21 | – | inactive
52 | CC(C)(C)OC(=O)N1CCC(c2c(C(=O)Nc3ccc4c(c3)OCCO4)cnn2-c2ccc(F)cc2F)CC1 | – | inconclusive: 25.1 µM [inhibitor, partial curve, poor fit]
53 | Cc1ccc(C(=O)N/N=C/c2ccc(N3CCOCC3)cc2)c(C)c1 | – | inactive
54 | O=C1C(=O)N(C2CCN(S(=O)(=O)c3ccccc3)CC2)CCN1Cc1ccccc1 | – | inactive
55 | Cc1nc2ccc(C(=O)O)cc2c2c1CC(C)S2 (centres undefined) | – | inconclusive: 2.24 µM [inhibitor, partial curve, poor fit]
56 | COc1ccc(OC)c(CCNC(=O)c2cc3cccc4c3n2CC(C)S4)c1 (centres undefined) | – | inconclusive: 5.01 µM [inhibitor, full curve, poor fit]
57 | Cc1ccc(Cl)cc1N1CCN(C(=O)c2ccc(NS(=O)(=O)c3c(C)noc3C)cc2)CC1 | – | inconclusive: 44.7 µM [inhibitor, partial curve, poor fit]
58 | C=CCn1c(COc2ccccc2)nnc1SCC(=O)Nc1ccc2c(c1)OCCO2 | – | inactive
59 | NC(=O)[C@@H]1CCCNc2c(I)cc([N+](=O)[O-])cc2C(=O)N[C@@H](Cc2ccccc2)C(=O)N[C@@H](Cc2cnc[nH]2)C(=O)N1 | – | active: 8.91 µM
60 | CCCOc1ccc(CNC(=O)c2ccc3nc(N4CCOCC4)sc3c2)cc1 | – | inactive
61 | COc1ccc(NC(=O)CC2C(=O)N(C)C(=S)N2CCc2ccccc2)cc1 (centres undefined) | – | inactive
62 | O=C(Cc1coc2cc3c(cc12)CCC3)OCC(=O)N1CCCC1=O | – | inactive
63 | O=S(=O)(Nc1nc(-c2sccc2Cl)cs1)c1cc(Cl)ccc1Cl | – | inconclusive: 11.2 µM [inhibitor, full curve, poor fit]
64 | O=C(CN1CCN(c2ccccc2F)CC1)Nc1ccccc1F | – | active: 50.1 µM
65 | Cn1cc(Br)c(C(=O)Nc2sc3c(c2C#N)CCC3)n1 | – | active: 35.5 µM
66 | CC1=C(C(=O)Nc2ccc(F)cc2)C(c2ccc(C)o2)C2=C(CC(C)(C)CC2=O)N1 (centres undefined) | – | active: 50.1 µM
67 | CN1CCN(/N=C/c2ccc(Br)cc2)CC1 | – | inconclusive: 79.4 µM [inhibitor, partial curve, poor fit]
68 | COc1ccc(N2CCN(CC(O)COc3ccccc3[N+](=O)[O-])CC2)cc1 (centres undefined) | – | inconclusive: 31.6 µM [inhibitor, single point]
69 | COc1ccc(N/C(=C(/C(Cl)=C(Cl)Cl)[N+](=O)[O-])n2nnc3ccccc32)cc1 | – | active: 11.2 µM
70 | CCSc1ncc(Cl)c(C(=O)Nc2ccc(S(=O)(=O)Nc3ncccn3)cc2)n1 | – | inactive
71 | COc1cc2[nH]c(=S)nc(NCc3cccnc3)c2cc1OC | – | active: 44.7 µM
72 | CCN(CC)S(=O)(=O)c1ccc(C(=O)NCc2n[nH]c(=S)n2Cc2ccccc2)cc1 | – | inconclusive: 6.31 µM [inhibitor, partial curve, poor fit]
73 | Cc1ccccc1C(=O)NC1CCN(CC(=O)Nc2ccc3c(c2)OCCO3)CC1 | – | inactive
74 | COc1ccc(C)cc1NC(=O)C(c1ccccc1)N1CCN(CC(=O)N2CCOCC2)CC1 (centres undefined) | – | active: 44.7 µM
